# Reference: article PMC12136788
# This is one part of the list.
# T1: UNK ZnF1-3 (human, UniProt Q9C0B0 31-174)
# T1 sequence: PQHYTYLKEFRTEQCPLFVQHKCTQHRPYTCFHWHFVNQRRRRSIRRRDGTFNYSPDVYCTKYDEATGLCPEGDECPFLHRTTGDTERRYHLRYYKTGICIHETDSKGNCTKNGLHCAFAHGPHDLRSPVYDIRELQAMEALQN
# B1: 98574621_98575875_8501_CDS_ENSG00000196367_ENST00000355540|human|control|control (ssRNA)
# RNA: GGGAGUUCUACAGUCCGACGAUCUUUUUUGGCUUUAUCCAUUGCCUUUUCAUAGGAUUCUUGUGCCUGCUCAAAGAACCCGUGCUGCUCGUAAGCAAUCGCAGUCGCUGUCUCCGAGUACUUGCACCGCUUCUGCCACAGACCCAACAGAGGAUUGAGCAUCA
# B2: chr1:58468927:58468928:-_ENSMUSG00000026034_ENSMUST00000148330|mus_mus|mus_mus_mus_hu_False|1_58 (ssRNA)
# RNA: GGGAGUUCUACAGUCCGACGAUCAAUUACUGAAAAAGAUGUUCAUUACCUUAGCUAUGUACUUAAUGAACCAAAUUAUCUAAAAAAAAUAAACAUGGCAAUAUAAAAAUGUUAAGAAUUUACAAAGCUGUACAAAAAGACUGACAACAGAGGAUUGAGCAUCA
# B3: 178370291_178378592_1739_CDS_ENSG00000018510_ENST00000264167|human|control|control (ssRNA)
# RNA: GGGAGUUCUACAGUCCGACGAUCUUCCCUUGUUAUUCUUUCUUUUACAUUUCUACAGAGAUCUACCACCCUGUCCCAAGGAGCAGAAGUCUCAAAAGAUUCUCCUAAUACAUAGUAUUCCAAAGCCAAGUCUCGAAUGUAUGCCAACAGAGGAUUGAGCAUCA
# B4: chr2:39052001:39052002:-_ENSMUSG00000026753_ENSMUST00000028087|mus_hu|motif|central (ssRNA)
# RNA: GGGAGUUCUACAGUCCGACGAUCCAACUGGUAUCAAAUUAACACAUCAGCAUUACAAGUAUUAAAUGUUUUUCUAUUACGGUAGAGGAUAUAAACCAAAACAUUAAUAUGGCAGUUAUGUUCUUUAGGCACAGUUUAGUGAUUCAACAGAGGAUUGAGCAUCA
# B5: chr3:33863462:33863463:+_ENSG00000170248_ENST00000307296|hu_mus|motif|central (ssRNA)
# RNA: GGGAGUUCUACAGUCCGACGAUCUGCAAUCUGGCUAGCUAAGGCAGCACAAUUGAACAACACACAGCUCUUUUCAUAUCCGGAGCUUGCAAGAGCCAAUUUUACAGACCCUCCAAAAAGGGAACCUUUAUCAAAAGCAUCCUUCAACAGAGGAUUGAGCAUCA
# B6: chr9:123526118:123526119:-_ENSG00000119402_ENST00000608872|hu_hu|FALSE|FALSE (ssRNA)
# RNA: GGGAGUUCUACAGUCCGACGAUCGAGUUCCAGGGUAAGAGGCCCGGUCUCUAACCUUCCAGCUCACUGCUCUUUUCUGCUAUACCAGGGCACCGCUGUGCAGUCAUCCAGGCUGCCGGGGACUAGCUUCCCCGACAUGGCAACCAACAGAGGAUUGAGCAUCA
# B7: chr8:54879716:54879717:-_ENSG00000187735_ENST00000521604|hu_hu|motif|central (ssRNA)
# RNA: GGGAGUUCUACAGUCCGACGAUCCAAUCUCACUCAUGACAGAAAAAGUCAGCAAAUAAGACUUGGGACAAAAUUAUUUUCGGUCAGUCUCCACAUGGAAAGACCACAGCUUUAAUGAAUUAUACAAUCCUUAAGAUUAAUCCUCAACAGAGGAUUGAGCAUCA
# B8: chr11:99071305:99071306:-_ENSMUSG00000037935_ENSMUST00000103133|mus_mus|FALSE|FALSE (ssRNA)
# RNA: GGGAGUUCUACAGUCCGACGAUCAAGACCUUCAUGUUGUAUCAACGGAAAAGUAAAUAAUUAAUACACAGACCACAUAACACCAUUAAAACCAAAAAAAAAACCACAUUUUUUUUUCAUUUAAAAAAGUUUUAGGUCACAUAACAACAGAGGAUUGAGCAUCA
# B9: 69695938_69699410_2878_CDS_ENSG00000148634_ENST00000373700|human|control|control (ssRNA)
# RNA: GGGAGUUCUACAGUCCGACGAUCACCAUUUAGAACCAGCUCUUUCACUUCUGUUGCACCAAAGUUUUCAACUGUGAUCGUAAAAUUAAGACAAAAUGUUUCCUCUAUGUCAUCUUCUGGAUAAUCCAGUAACUGUUGCAUGCUCAACAGAGGAUUGAGCAUCA
# B10: chr11:102150864:102150865:-_ENSMUSG00000059995_ENSMUST00000137387|mus_hu|FALSE|FALSE (ssRNA)
# RNA: GGGAGUUCUACAGUCCGACGAUCAAUUAGUACAGAACCCCCCCACACACACUCAGACACAGGAUACAGGGUGGACGACACCUAGCCGGGGUGGGAAGGAUGGGAAUUGAAACCCACACAGCCUGCUGUUAGAGGGAGGGGAGUCAACAGAGGAUUGAGCAUCA
# B11: chr2:101883234:101883235:+_ENSG00000158435_ENST00000289382|hu_hu|motif|central (ssRNA)
# RNA: GGGAGUUCUACAGUCCGACGAUCGAAAUACUCAGUGAUCUGGCUUGACUGCAUUAAUUUCAGCAACAUUUCUAUAGCGACGGAAGGGUUGUUUUCCACAAGGUCAGGAAGUUUGGCUGGGGUGAGGCCAAUAUGGUAGACAAGCAACAGAGGAUUGAGCAUCA
# B12: chr4:4691572:4691573:-_ENSMUSG00000066324_ENSMUST00000084949|mus_hu|FALSE|FALSE (ssRNA)
# RNA: GGGAGUUCUACAGUCCGACGAUCACCAUAGAUUAGGUUUAUUUUAUACAACAGUUACAAGACAGACCUUUUGUAGGCAUAUAAAUACAUCUUAAAUUCAAUCAAGAUCUAAAAUGAAAAAUUAUUUUUUCUUUCUAGGAUCAACAACAGAGGAUUGAGCAUCA
# B13: chr17:60770872:60770873:+_ENSG00000011028_ENST00000303375|hu_hu|hu_hu_hu_mus_True|1_108 (ssRNA)
# RNA: GGGAGUUCUACAGUCCGACGAUCUCUCUUUUCUUUUAAAAAAAAAGACAAACAAUAAUAGCACAUUUCGAGAAUCAAGAACUACAAUAGAGGGUCCGCUUUGAGUUUUUGUUCACAUCGUCCUGCACUGGGACACGACCAGGACAACAGAGGAUUGAGCAUCA
# B14: chr9:130210260:130210261:-_ENSG00000197958_ENST00000361436|hu_mus|motif|central (ssRNA)
# RNA: GGGAGUUCUACAGUCCGACGAUCGCCCACAGACUGUGCAGUACCCAGGAUCUCCUUGAUAGUUCCAGAAAGUUCUCGGGCCAAAGACCGGUGUCUCAUCUGCCGGGCAAUGUUGACAAUCUCAUCAAAAGUAAUGUUCCCACUCAACAGAGGAUUGAGCAUCA
# B15: chrX:154448470:154448471:+_ENSG00000155959_ENST00000286428|hu_hu|FALSE|FALSE (ssRNA)
# RNA: GGGAGUUCUACAGUCCGACGAUCAUCCAGCUUCUUUAAUACUGUAUCUGCAGUCUCAUUCCCAGGCUGUUUCAUGAAGGAAUCUACAUCUUCCACAAACACGGCCUCAGGAAUCCCCAGGUGGAGCCGCCGCCCAUUCCCUGUCAACAGAGGAUUGAGCAUCA
# B16: chr10:20042908:20042909:+_ENSMUSG00000037608_ENSMUST00000043881|mus_hu|motif|central (ssRNA)
# RNA: GGGAGUUCUACAGUCCGACGAUCGGAACGUGAACGACCUCGUCUAGGACUCCUAGAGUGCCUUCUAUUCCAGACAGGUCGGUAACCACCUCGAUGAUAUCUACCUCCUCCUCCUUGAUAAUACCCUCUACCCCUUCCUCUGUACAACAGAGGAUUGAGCAUCA
# B17: chr8:59359966:59359967:+_ENSG00000215114_ENST00000399598|hu_mus|FALSE|FALSE (ssRNA)
# RNA: GGGAGUUCUACAGUCCGACGAUCCGCAAAUUCAGGACGUGACCGUACUAUAAAGUCUCGUACAUCCAGAAUCCGGUGUGUGCUAUUGAAUCUCUGUACGAGACGACUUCCAUCUGCCAACCUGAUCUGAAUUUUUGUGGUGGGCAACAGAGGAUUGAGCAUCA
# B18: chrX:119387588:119387589:+_ENSG00000177485_ENST00000326624|hu_mus|motif|central (ssRNA)
# RNA: GGGAGUUCUACAGUCCGACGAUCUGAUAUGCUUUUAACCUGUGACAGUGGGACACCAAGCUCUGCUAUAAAUUUCACGCCGGGUAACUGCCCUGAUUUAAUUAACUCGUCAAGCAAAUCUGCUCUAACACGGACAACUUUGGACAACAGAGGAUUGAGCAUCA
# B19: chr4:138441076:138441077:-_ENSG00000189184_ENST00000507846|hu_mus|FALSE|FALSE (ssRNA)
# RNA: GGGAGUUCUACAGUCCGACGAUCGGAUAAAUCAGACAAAAUUGCAGUAACAAAAAAAGUGACUUUAUAAAUGUUCAUAUGCUAAAAAUACAAGCAAAACUGUGAUAGCAUGCACAAGAGACAAAAGCUAAAGGUGAAUAAUUACAACAGAGGAUUGAGCAUCA
# B20: chr1:59924863:59924864:+_ENSMUSG00000067336_ENSMUST00000087435|mus_mus|motif|central (ssRNA)
# RNA: GGGAGUUCUACAGUCCGACGAUCGUUGCCAAAUUUUAGCCGGGGUUCUUUUGUUGAAUUUUUGGUGUUCAAAGGCAAACGGGUAGGUCUCUUAGGAAGGUUCUGUUGCUUAGGGAGAGGAUAGAUCUGAGCAGGUGGAACAUCCAACAGAGGAUUGAGCAUCA
# B21: chr15:76911001:76911002:-_ENSMUSG00000033565_ENSMUST00000166610|mus_hu|FALSE|FALSE (ssRNA)
# RNA: GGGAGUUCUACAGUCCGACGAUCAAGAGCAUGACAAAAUAAAAACACACAAAUUUACGUCUGAUGUUCACCUUGCCCACUAUUUUUUUUUCCUAUCUUAAAACAGUGCAAACAGGUAACUUAUGCUUUUAAAACACCACGACCCAACAGAGGAUUGAGCAUCA
# B22: chr7:44244176:44244177:+_ENSG00000106636_ENST00000223369|hu_mus|hu_hu_hu_mus_False|48_98 (ssRNA)
# RNA: GGGAGUUCUACAGUCCGACGAUCACUGUCGCUCCGGACGUAGACGUGGCAAAGAUACUCUUGUUCUUUGACAGAAGCUCUGCUGCCUUUCGAUGAGCGUUCCACAAUCAGUUGACUUGUAAAGGUCAUGAAUUCCUGCACACUCAACAGAGGAUUGAGCAUCA
# Target: T1, UNK ZnF1-3
# Assay: nsRBNS (natural sequence RNA bind-n-seq); RBNS binding buffer (assumed for nsRBNS): 25 mM Tris pH 7.5, 150 mM KCl, 3 mM MgCl2, 0.01% Triton X-100, 500 ug/ml BSA, 20 U/ml SUPERase-In, 4 C; UNK is unkempt and MSI1 is Musashi-1; names of the RNAs are library labels; protein concentration not given here; high values mean tight binding
row,Binder,binding signal [enrichment R]
1,B1,0.348
2,B2,2.56
3,B3,1.34
4,B4,0.946
5,B5,0.97
6,B6,0.696
7,B7,1
8,B8,1.01
9,B9,1.15
10,B10,1.95
11,B11,1.47
12,B12,0.514
13,B13,1.39
14,B14,1.24
15,B15,0.554
16,B16,0.828
17,B17,0.74
18,B18,1.05
19,B19,2.86
20,B20,1.52
21,B21,1.4
22,B22,0.656
